# Results published in publication PMC4336329 (PLoS ONE, 2015).
# Hit rate of the full screen: of about 310,000 compounds, about 2,200 (0.71%) showed an effect of 50% or more. The effect is printed as a negative number. This is one part of the list. Where a SMILES comes first, the peptide text is derived from it. [ ]: non-standard residue; d: D form. The star is where a group is joined. ξ: configuration not given here. Cbz = O=C(OCc1ccccc1)*; ξA = CC(N)C(=O)O
# Molecular target: human ether-à-go-go-related gene (hERG) potassium channel (human, UniProt Q12809)
# Sequence (Q12809 whole entry, looked up): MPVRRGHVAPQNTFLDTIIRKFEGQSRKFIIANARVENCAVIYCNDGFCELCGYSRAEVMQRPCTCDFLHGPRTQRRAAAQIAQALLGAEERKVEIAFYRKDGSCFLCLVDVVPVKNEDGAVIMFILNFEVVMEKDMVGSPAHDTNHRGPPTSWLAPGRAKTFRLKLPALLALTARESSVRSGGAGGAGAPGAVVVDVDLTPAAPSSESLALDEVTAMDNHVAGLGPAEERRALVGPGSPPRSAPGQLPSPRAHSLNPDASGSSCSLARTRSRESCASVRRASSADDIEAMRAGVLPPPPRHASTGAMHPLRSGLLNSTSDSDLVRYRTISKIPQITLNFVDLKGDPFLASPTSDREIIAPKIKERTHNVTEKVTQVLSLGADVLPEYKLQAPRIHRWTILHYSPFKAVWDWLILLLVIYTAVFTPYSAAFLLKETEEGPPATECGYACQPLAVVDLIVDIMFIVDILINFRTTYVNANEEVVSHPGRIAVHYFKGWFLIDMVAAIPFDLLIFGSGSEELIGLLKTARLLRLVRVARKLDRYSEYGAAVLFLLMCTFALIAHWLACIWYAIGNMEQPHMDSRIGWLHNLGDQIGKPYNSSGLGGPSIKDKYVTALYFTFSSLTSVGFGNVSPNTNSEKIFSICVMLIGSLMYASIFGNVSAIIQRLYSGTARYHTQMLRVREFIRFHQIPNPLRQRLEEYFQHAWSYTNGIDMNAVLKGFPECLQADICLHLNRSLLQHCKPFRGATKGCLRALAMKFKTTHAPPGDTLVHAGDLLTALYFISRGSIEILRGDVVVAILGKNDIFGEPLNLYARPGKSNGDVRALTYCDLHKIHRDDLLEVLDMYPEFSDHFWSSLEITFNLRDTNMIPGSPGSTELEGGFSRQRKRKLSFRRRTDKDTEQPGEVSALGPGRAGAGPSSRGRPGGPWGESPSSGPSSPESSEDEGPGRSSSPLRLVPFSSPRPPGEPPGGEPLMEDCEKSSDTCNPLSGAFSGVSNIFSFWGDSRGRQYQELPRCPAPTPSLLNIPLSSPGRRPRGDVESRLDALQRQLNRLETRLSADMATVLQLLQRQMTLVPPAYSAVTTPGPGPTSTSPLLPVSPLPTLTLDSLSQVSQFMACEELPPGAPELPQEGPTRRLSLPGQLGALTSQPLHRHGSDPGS
# Assay: primary screen, population patch clamp on CHO cells stably expressing hERG
row,SMILES,"hERG current change (%, negative = inhibition) at 1uM"
1,COc1ccc(N(CC(=O)Nc2ccccc2Cl)S(=O)(=O)c2ccc(C)cc2)cc1OC,15.6%
2,CCOC(=O)c1cnc2c(C)c(Cl)ccc2c1Nc1ccc(S(=O)(=O)Nc2ncccn2)cc1,10.8%
3,C[C@@H](NC(=O)OC(C)(C)C)c1nnc(S(=O)(=O)Cc2ccccc2)o1,11.7%
4,CCOC(=O)CSc1nnc(NC(=O)c2ccco2)s1,12.4%
5,COC(=O)c1c(NC(=O)c2ccccc2)sc2c1CC(C)(C)OC2,-12.3%
6,O=C(NCCc1ccc(F)cc1)C1CCCCC1,16.5%
7,C=CCN(CC=C)C(=O)C1CCN(S(=O)(=O)c2ccc(N3CCCC3=O)cc2)CC1,11.2%
8,Cc1ccc(NC(=O)c2cc(S(=O)(=O)N3CCC4(CC3)OCCO4)ccc2F)cc1,0.398%
9,CN(C)C(=O)COn1c(SCC(=O)N(C)C)nc2ccccc2c1=O,13.4%
10,Nc1cc(C(F)(F)F)ccc1N1CCOCC1,12%
11,O=C(NC1CCN(Cc2ccccc2)CC1)c1cc(Br)c(Br)[nH]1,9.79%
12,Cc1cccc(CNc2ncnc3ccc(-c4ccccc4Cl)cc23)c1,8.86%
13,Nc1c(Cl)cc(C2=NCCn3c2c2ccc(C(F)(F)F)cc2[n+]3[O-])cc1Cl,0.491%
14,Cc1c(NC(=O)c2cc3c(=O)n4ccccc4nc3s2)c(=O)n(-c2ccccc2)n1C,4.91%
15,CCN(CC(=O)Nc1c(F)cccc1F)C(=O)C1CCCN(C(=O)c2ccc(Cl)cc2)C1 (stereo not drawn),-14.3%
16,Cc1c(C(=O)N2CCCC2)oc2c1-c1[nH]ncc1CC2,8.23%
17,O=C(Nc1nc2ccccc2[nH]1)C12CC3CC(CC(C3)C1)C2,4.17%
18,Cc1cc(Cl)ccc1OCC(=O)N/N=C/c1ccc(OC2OC(CO)C(O)C(O)C2O)cc1 (stereo not drawn),10.6%
19,Cc1cc(OC(=O)N2CCOCC2)cc(C)c1Cl,6.6%
20,Cc1oc(-c2ccccc2)nc1C(=O)OCC(=O)NCc1ccccc1,10.8%
21,Cc1ccc(-n2cnc(=O)c3cccnc32)cc1,2.96%
22,Fc1ccc(CCN2CCN=C2Nc2ccccc2)cc1,-14.8%

row,SMILES,"hERG current change (%, negative = inhibition) at 1uM"
1,CCOC(=O)c1ccc(NC(=O)N2CCN(Cc3ccccc3)CC2)cc1,8.74%
2,CCCc1ccc(OCc2ccc(C(=O)Nc3cccc(C)n3)o2)c(OC)c1,10.4%
3,Cc1nc(C(=O)NNC(=O)Nc2ccccc2)cs1,12.5%
4,CCOc1ccccc1NC(=O)c1nc(S(=O)(=O)Cc2cccc(C)c2)ncc1Cl,-7.3%
5,O=C(OCc1nc2ccccc2[n+]([O-])c1C(=O)c1ccccc1)c1cccs1,9.75%
6,C=CCOn1c(=O)c(-c2ccc(OC)cc2)[n+]([O-])c2ccccc21,1.21%
7,O=c1cc(-c2ccccc2[N+](=O)[O-])oc2ccccc12,7.73%
8,CC(=O)CNc1ccc(S(=O)(=O)N/N=C/c2ccccc2)cc1,12.4%
9,O=C1OCC2=C1C(c1ccccc1)CC(=O)N2c1ccc(F)cc1 (stereo not drawn),10.9%
10,O=C(CSc1cccc2cccnc12)Nc1ccc(S(=O)(=O)N2CCOCC2)cc1,-1.7%
11,CN1CCN(C(=O)c2ccc(CS(=O)(=O)c3c(Cl)cccc3Cl)o2)CC1,2.21%
12,O=C(CC(NS(=O)(=O)c1ccc(Cl)cc1)c1ccco1)NCc1ccco1 (stereo not drawn),-0.93%
13,Cc1cc(C)c(C#N)c(N2CCN(S(=O)(=O)Cc3ccccc3)CC2)n1,14.8%
14,Fc1ccccc1Cc1noc(CN2CCC(OCc3cccnc3)CC2)n1,5.91%
15,CCOC(=O)Cn1nc(-c2ccccc2)nc1-c1ccccc1,4.99%
16,O=C(c1cccc(S(=O)(=O)N2CCCCC2)c1)N1CCN(S(=O)(=O)c2ccc(F)cc2)CC1,-6.85%
17,CCN(CC(=O)Nc1c(F)cccc1F)C(=O)c1ccc(N2CCOCC2)c([N+](=O)[O-])c1,18.5%
18,O=C(Nc1ccc(OC(=O)N2CCCCC2)cc1)N1CCOCC1,3.04%
19,O=C(c1cccc2c1C(=O)N(Cc1cccnc1)C2)N1CCN(c2ccccc2)CC1,7.09%
20,CC(c1nnc(Sc2nnnn2-c2ccccc2)n1-c1ccc(F)cc1)N(C)C (stereo not drawn),7.75%
21,CCOC(=O)C1=C(C)N(C)C2(C)CC1c1ccccc1O2 (stereo not drawn),4.8%
22,COc1cccc(NC(=O)COc2cc(O)c3c(c2)OC(C)(C)CC3=O)c1,-4.39%

row,SMILES,"hERG current change (%, negative = inhibition) at 1uM"
1,COCCn1c(C)c(C)c2c(NCCc3ccccc3)ncnc21,10.4%
2,CCCS(=O)(=O)N1CCC(C(=O)NC2CCC(C)CC2)CC1 (stereo not drawn),11.2%
3,CCCc1cc(=O)oc2cc(OCC(=O)N3CCC(C(N)=O)CC3)ccc12,-2.76%
4,O=C(Cc1ccc(Cl)cc1)Nc1cc(S(=O)(=O)N2CCOCC2)ccc1N1CCCC1,4.84%
5,CCOC(=O)Cn1c2ccccc2c2nc(C)sc21,5.47%
6,CCCN1CCC(NC(=S)Nc2cccc(Cl)c2Cl)CC1,17.7%
7,COc1cccc(C(=O)Nc2ncc3c(n2)CC(C)(C)CC3=O)c1,7.2%
8,CCCCN(CC)CCNC(=S)Nc1ccc2nc(N3CCN(C)CC3)cc(C)c2c1,9.98%
9,COc1ccc(OC)c(C2C3=C(CC(C)(C)CC3=O)Nc3nnnn32)c1 (stereo not drawn),7.43%
10,CC1(C)Cc2c(sc(NC(=O)c3ccco3)c2C#N)C(C)(C)N1,5.8%
11,CN(C)CCCN(C(=O)c1ccc(Cl)s1)c1nc2cc3c(cc2s1)OCO3,-5.53%
12,COc1cc(C(=O)NCCNC(=O)c2cc(OC)c(C)c(OC)c2)cc(OC)c1C,12.4%
13,CCc1cccc2c(C=C(C#N)C#N)cn(CC(=O)N3CCCCC3)c12,4.82%
14,O=C(NN1C(=O)c2cc(Br)ccc2NC1c1ccccc1Cl)c1ccncc1 (stereo not drawn),11.5%
15,CCOC(=O)c1cnc2ccc(OC)cc2c1Nc1ccc(N2CCN(C)CC2)cc1,9.71%
16,COc1ccccc1N(CC(=O)N1CCN(c2ccc(F)cc2)CC1)S(=O)(=O)c1ccc(C)cc1,11.3%
17,CCN(CC)S(=O)(=O)c1ccc(N/N=C/c2cc(OC)c(OC)cc2OC)nc1,17.4%
18,N#CCCn1cc(/C=N/O)c(-c2ccc(F)cc2)n1,6.15%
19,N=c1c(C(=O)NC2CCCCC2)cc2c(=O)n3ccccc3nc2n1Cc1ccccc1,-10.1%
20,COc1ccc(N(CN2C(=O)C3CCCCC3C2=O)C(=O)c2ccco2)cc1 (stereo not drawn),4.7%
21,CC(C)Cc1cc(C(=O)NCc2cccs2)no1,-3.3%
22,CN1CCN(S(=O)(=O)c2ccc(Oc3ccc(F)cc3Br)nc2)CC1,6.61%

row,SMILES,"hERG current change (%, negative = inhibition) at 1uM"
1,O=C(c1ccccc1NS(=O)(=O)c1ccccc1[N+](=O)[O-])N1CCCC1,13.1%
2,COC(=O)CSc1ccc2nnc(CCNS(=O)(=O)c3ccccc3)n2n1,12.4%
3,O=C(CSc1nnc(-c2ccccc2)n1-c1ccc(Cl)cc1)NNC(=S)Nc1ccccc1,15.1%
4,CC(Oc1ccc2c3c(c(=O)oc2c1)CCCC3)C(=O)NCc1ccccn1 (stereo not drawn),2.21%
5,Cc1ccc(S(=O)(=O)N2CCN(C3CCC(c4ccccc4)CC3)CC2)cc1 (stereo not drawn),7.33%
6,Cc1cccc(C)c1N1C(=O)CN(Cc2ccccc2)C1=S,4.06%
7,CC(=O)CSc1nnc(CSc2ncccn2)n1C1CCCCC1,-7.51%
8,CCC(=O)NC(c1ccccc1)c1c(OC(C)=O)ccc2ccccc12 (stereo not drawn),-3.05%
9,O=C(O)C1CC(=O)n2c(nc3ccccc32)S1 (stereo not drawn),11.8%
10,O=C(NCc1ccccn1)C1CCN(S(=O)(=O)c2cnc[nH]2)CC1,9.57%
11,C/C(=N\Nc1ccc(Cl)c(C(=O)O)c1)c1cccc2ccccc12,0.444%
12,COC(=O)CNC(=O)C(C)NC(=O)CNC(=O)OCc1ccccc1 (stereo not drawn) (Cbz-Gly-[ξA]-Gly-OMe),2.17%
13,O=C(CN(Cc1ccccc1)C(=O)CNS(=O)(=O)c1ccccc1)NCC1CCCO1 (stereo not drawn),1.8%
14,Nc1nc(NC(=O)c2ccccc2Cl)nn1-c1ccccc1,6.18%
15,CCOC(=O)C(CC)/C(C)=N/NC(=O)c1ccccc1[N+](=O)[O-] (stereo not drawn),-7.21%
16,C=CCC(COCc1ccccc1)NS(=O)(=O)c1ccccc1Br (stereo not drawn),6.92%
17,CCOc1ccc(S(=O)(=O)NCCC(=O)N2CC(C)CC(C)C2)cc1 (stereo not drawn),2.38%
18,CC(NC(=O)/C(C#N)=C1\N=C(NC(=O)c2cccs2)c2ccccc21)c1ccccc1 (stereo not drawn),13.6%
19,Cc1cnc(CN(C)C(=O)CC2C(=O)NCCN2CCCc2ccccc2)[nH]1 (stereo not drawn),8.18%
20,CC(Nc1cccnc1)=C(C#N)C#N,5.19%
21,Cc1cccc([N+](=O)[O-])c1C(=O)O,11.2%
